Reference: the supplement of paper PMC3334620
Over roughly 33,000 sequences, “E-score (-0.5 to 0.5)” has its median near -0.056; the highest 2% begin near 0.38. Some of the results follow.

What follows are sequences tested against Stb4 (UniProt P50104) (assay: PBM E-score (8-mer binding enrichment) (E-score (-0.5 to 0.5)); higher = stronger / more preferred TF binding; most listed sequences are background and not binding sites). Conditions: protein concentration: 200 nM; construct: GST-DNA-binding domain.
Method in brief: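 Masliner-normalised scans of fluorescent anti-GST signal were the basis for scoring. That signal came from GST-tagged yeast transcription factors applied at about 100-200 nM to double-stranded universal all-10-mer Agilent arrays on fresh or once-stripped slides. Each ungapped eight-base word, pooled with its reverse complement, received an E-score from the Universal PBM Analysis Suite.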

Row | Sequence | PBM E-score
1 | ATCGTGCC | 0.162
2 | TCCAACCA | -0.117
3 | ATCTAGGG | -0.336
4 | GCCGAGGC | 0.436
5 | ATTTGGGC | -0.166
6 | CGTAGTTC | -0.0215
7 | GGTTAAAC | 0.0999
8 | AGCGAGAT | -0.00096
9 | CGAGCACG | 0.183
10 | GCAAACCA | -0.187
11 | CTTAAGGC | -0.0873
12 | ATCGCTTC | 0.0204
13 | ACCCCGGT | 0.135
14 | ATCCTAGG | -0.0251
15 | CCTACAGA | -0.172
16 | AATGGGGT | -0.142
17 | CTGGAGCC | -0.0101
18 | GAGCGTAC | -0.091
19 | ATTGCCAC | -0.182
20 | AGCGATTA | -0.0466
21 | GAACGTTC | 0.0157
22 | AGCCGAAG | 0.391
23 | CAGGACCA | -0.103
24 | ATCCATGA | -0.144
25 | CCGTGGCC | 0.124

Row | Sequence | PBM E-score
26 | CTGAAAAG | -0.0916
27 | CTGAGCAA | -0.195
28 | CCTTGCAC | -0.0446
29 | CATGCCTC | 0.028
30 | AGCCTTCG | 0.0677
31 | CATGCTCA | -0.152
32 | CTAGCGGC | -0.0333
33 | GTAGCTAA | -0.0565
34 | CAGGCAGA | -0.0815
35 | AGAGGGTG | -0.141
36 | GCCGCGTA | 0.141
37 | AACTGGTC | 0.0748
38 | AGTAGGCC | -0.209
39 | ATGCGCAA | -0.0689
40 | ATTATCCC | 0.0679
41 | ACCAGCTA | -0.216
42 | ACTGCCCA | -0.178
43 | CGTGAAAG | -0.0887
44 | CCATAGGG | -0.157
45 | CTAAGTGC | -0.0993
46 | TGCAAGCA | -0.123
47 | CGTCATTC | -0.00028
48 | AGTCGTCG | -0.00728
49 | AGATGATC | 0.0878
50 | GTCTGCGA | -0.324

Row | Sequence | PBM E-score
51 | GCCTCAAA | 0.0154
52 | AACCAAGG | -0.134
53 | AAAGGCGT | -0.0826
54 | CTATGCCA | -0.291
55 | GCTAAACA | -0.0519
56 | CTGCAGGC | -0.0808
57 | CAACCACG | -0.132
58 | GGTTATAA | 0.197
59 | CGAGGATA | 0.0376
60 | AAGCCTAT | -0.162
61 | GAAGCGAC | -0.0222
62 | ATCGTGGA | -0.0724
63 | AACTTGAA | 0.0409
64 | CTTTCTGA | -0.25
65 | AAATCACC | 0.103
66 | AATCCGCT | 0.0362
67 | GCACAGGA | -0.033
68 | GTCAAAGA | -0.142
69 | CCCTGCGA | -0.258
70 | CGTCGCAA | -0.124
71 | CGTCGGCA | 0.38
72 | CGGCGTGA | 0.111
73 | CCTACCAA | -0.0462
74 | AGGGTGCA | -0.141
75 | CTCGGTTC | 0.361

Row | Sequence | PBM E-score
76 | AAGTATTC | 0.0153
77 | AGAGTGCT | -0.114
78 | AACGCCTT | 0.0897
79 | CAGCTCAA | -0.109
80 | ATTTGGCC | -0.0493
81 | CGGCGTTA | 0.198
82 | ATCATAAT | -0.124
83 | GGATATAC | 0.26
84 | TACGTAGA | -0.0695
85 | ACAGCTCA | -0.338
86 | CATTCCGC | 0.175
87 | ATAGACAG | -0.124
88 | GATAGACC | 0.00568
89 | CACCAGGC | -0.141
90 | ATAAAAAC | -0.00099
91 | CACCTAAG | -0.218
92 | TATAAGGA | 0.00377
93 | TAAGTAGA | -0.103
94 | ATTGAGCC | -0.0721
95 | CAGTTTGC | -0.0669
96 | CATAAAGG | -0.055
97 | CCTCCTAA | -0.203
98 | CAGTCTCC | 0.071
99 | ATTCACGC | -0.17
100 | ATGATGCC | 0.036

Row | Sequence | PBM E-score
101 | AACCGGGC | 0.178
102 | GAAGCCCA | -0.1
103 | GATGTACC | -0.0638
104 | GACTACGA | -0.124
105 | AGCTGTAA | -0.361
106 | CCGGTGCA | 0.225
107 | TATGGTCA | -0.24
108 | CCGGCAGG | 0.244
109 | CTCATATC | -0.0509
110 | CCTTTGAG | -0.149
111 | CCCTTCAG | -0.136
112 | CACCGATA | 0.0444
113 | ATCTCAGA | -0.0812
114 | AGTTATGG | -0.209
115 | AATGCAGT | -0.162
116 | CCATGTGC | -0.00984
117 | AGCCAGGG | -0.22
118 | ACTGGATG | -0.282
119 | AGCCTCTC | -0.189
120 | CCTGCGAC | -0.0924
121 | CAGCAGCG | -0.141
122 | CCACACCG | 0.0242
123 | AGTTTAAA | 0.124
124 | AGATGTTG | 0.0107
125 | ATGAGGGA | -0.254

Row | Sequence | PBM E-score
126 | ACAGTTAT | -0.0952
127 | AGCTAGCA | -0.0474
128 | AGGTCGGG | 0.2
129 | GCAGAAGC | -0.0858
130 | GACGCTCA | -0.154
131 | GACCCCAA | -0.101
132 | AAGACATG | -0.157
133 | CAGCGCAA | -0.117
134 | GGCCCAAA | 0.122
135 | ACTGGACC | -0.00429
136 | ATCATGAA | -0.126
137 | GAATGTGC | -0.11
138 | CGTAAGCA | -0.0963
139 | AGATAAAC | 0.00284
140 | CAGTCCAG | -0.185
141 | CGGGCCAG | 0.131
142 | CTTGGGGC | -0.131
143 | AAGCGCTA | -0.0929
144 | AAGCGTAT | -0.119
145 | AATTAACT | -0.0555
146 | CTCTACGC | -0.192
147 | CAGCCTAC | -0.0798
148 | CGCGGGCA | 0.171
149 | CCTCGCCG | 0.0999
150 | ACGGGCGC | 0.0987

Row | Sequence | PBM E-score
151 | AAAGTCAG | -0.168
152 | CGCATTAG | -0.0163
153 | CTTACGAC | -0.147
154 | CGTGCGAG | 0.0424
155 | AAAACAAG | -0.222
156 | CAAACTGC | -0.0742
157 | AGCACGTA | -0.0824
158 | GCCCCTAA | -0.127
159 | CAGTGTGG | -0.271
160 | ACGCGTAC | -0.149
161 | GATACGCC | 0.156
162 | TCACATAA | -0.137
163 | ACAATGTA | 0.0811
164 | ATCGTTAC | -0.164
165 | GCCCGAGC | 0.316
166 | GAGAGTAA | 0.101
167 | ATAGGTTG | -0.194
168 | ACCACGCT | -0.0647
169 | ATATGCTG | -0.164
170 | CAAGATGC | 0.0665
171 | GCAATACA | 0.0661
172 | GCCCGTTA | 0.0448
173 | CCCCCATA | -0.245
174 | CAAGTATC | -0.153
175 | GCTTCGTA | -0.25

Row | Sequence | PBM E-score
176 | CATCAGGC | -0.149
177 | ACATCGCA | 0.00514
178 | ATAAAATC | 0.116
179 | ACGAGGTG | -0.0198
180 | AGTCACTA | -0.158
181 | AATTCGTG | -0.153
182 | ATGCACAC | -0.108
183 | CAAAGCGA | -0.138
184 | CCTTGCTC | -0.054
185 | CATGATAG | -0.206
186 | CGAACTTC | -0.0313
187 | CTTTGTTC | 0.153
188 | AATACGGA | 0.257
189 | GGCGCCTA | -0.217
190 | TAGAGCTA | -0.321
191 | AACGAGAG | -0.154
192 | ATGGTACG | -0.0603
193 | GGTCTCAC | 0.00049
194 | CCCACGGA | 0.215
195 | AGATTAAT | -0.0514
196 | AAGGGTGT | 0.00314
197 | GTCTACAA | -0.146
198 | AGACCCAG | -0.17
199 | ACCCGCCA | 0.0903
200 | AGCTGCCG | 0.246

Row | Sequence | PBM E-score
201 | ACCCCAGA | -0.237
202 | GAATAATC | 0.0871
203 | CTCGGACC | 0.412
204 | CAGATTAA | 0.0478
205 | GTCTGAAA | -0.0933
206 | AACCGTAA | 0.0886
207 | CTAAGCGC | -0.129
208 | CAGCCTGC | -0.0896
209 | ACAAGCAA | -0.275
210 | AAGGACGG | 0.0564
211 | CGATGTAC | 0.104
212 | CCGTTCCG | 0.431
213 | TCCCCCAA | -0.253
214 | TGGCGGAA | 0.218
215 | CTGTGATC | 0.0393
216 | ACCGGAAA | 0.384
217 | GGATTTAA | 0.208
218 | AAATCTAT | -0.00166
219 | GCCCATAC | -0.201
